For 30 molecules, normalised cell viability results are on record in the supplement of paper PMC6609913.

Structures are written as SMILES. Where a name gives a salt, the structure may show the parent alone. ± gives the standard deviation of the averaged measurements. Over roughly 1,300 compounds, “normalised cell viability” has its median near 1; the lowest 2% begin near 0.14. Some of the results follow.

The experiment relates to V-C8 (BRCA2-deficient hamster cells). The experiment can be described thus: normalised cell viability (fraction of plate median); higher = more viable cells (less toxic). The note with it: 5 µM. The method in brief:
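Library drugs, held as 10 mM stocks in DMSO, were diluted to 5 μM in 100 μl medium and added to 96-well plates of V-C8 hamster cells, either lacking BRCA2 or with BRCA2 restored, 24 h after seeding. Plates ran for 3 days (screen 1) or 6 days (screen 2), alongside solvent-only wells. Viability came from a resazurin readout, median-plate normalised, as the mean of triplicate wells.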

As to `COP(=O)(OC)C(O)C(Cl)(Cl)Cl` (stereo not given) [Trichlorfon], the normalised cell viability is, setting by setting: (treatment time: 3 days) 0.974 ± 0.054; (treatment time: 6 days) 0.949 ± 0.049.

For the molecule `C[C@]12C[C@H]3S[C@H]3C[C@@H]1CC[C@@H]1[C@@H]2CC[C@]2(C)[C@@H](O)CC[C@@H]12` [Epitiostanol], the normalised cell viability (treatment time: 3 days) stood at 1.04 ± 0.012 and the normalised cell viability (treatment time: 6 days) was determined as 1.033 ± 0.01.

With `CCCC(C)C1(CC)C(=O)NC(=O)NC1=O` (stereo not given) [Pentobarbital], the normalised cell viability came out at 0.871 ± 0.066 (treatment time: 3 days) and 1.1 ± 0.026 (treatment time: 6 days).

As to `C[C@]12CCC(=O)C=C1C=C[C@@H]1[C@@H]2CC[C@@]2(C)[C@H]1CC[C@@]2(O)CCC(=O)O` [Canrenoic acid potassium salt], the normalised cell viability reads like this: (treatment time: 3 days) 1.08 ± 0.053; (treatment time: 6 days) 1.05 ± 0.036.

As to `C(#CCN1CCCC1)CN1CCCC1` [Tremorine dihydrochloride], the normalised cell viability reads like this: (treatment time: 3 days) 1.09 ± 0.065; (treatment time: 6 days) 1.08 ± 0.06.

Take `c1ccc2c(c1)Nc1ccccc1S2` [Phenothiazine]: the normalised cell viability is, setting by setting: (treatment time: 3 days) 1.05 ± 0.068; (treatment time: 6 days) 1.08 ± 0.071.

Take `O=c1c2ccccc2[se]n1-c1ccccc1` [Ebselen]: the normalised cell viability runs as follows: (treatment time: 3 days) 1.08 ± 0.067; (treatment time: 6 days) 1 ± 0.036.

Consider `CC(=O)O[C@H]1C[C@@H]2CC[C@@H]3[C@H](CC[C@@]4(C)[C@H]3C[C@H]([N+]3(C)CCCCC3)[C@@H]4OC(C)=O)[C@@]2(C)C[C@@H]1[N+]1(C)CCCCC1` [Pancuronium bromide], for which the normalised cell viability was determined as 1 ± 0.058 (treatment time: 3 days) and 1.08 ± 0.1 (treatment time: 6 days).

With `CN[C@@H]1[C@@H](O)[C@@H](O[C@@H]2[C@@H](O)[C@H](O[C@H]3O[C@H](CN)CC[C@H]3N)[C@@H](N)C[C@H]2N)OC[C@]1(C)O.CN[C@@H]1[C@@H](O)[C@@H](O[C@@H]2[C@@H](O)[C@H](O[C@H]3O[C@H]([C@@H](C)N)CC[C@H]3N)[C@@H](N)C[C@H]2N)OC[C@]1(C)O.CN[C@@H]1[C@@H](O)[C@@H](O[C@@H]2[C@@H](O)[C@H](O[C@H]3O[C@H]([C@@H](C)NC)CC[C@H]3N)[C@@H](N)C[C@H]2N)OC[C@]1(C)O` [Gentamicine sulfate], the normalised cell viability amounted to 0.961 ± 0.029 (treatment time: 3 days) and 0.955 ± 0.039 (treatment time: 6 days).

For the molecule `CN1CCC2(C)c3cc(O)ccc3N(C)C12` (single isomer, unassigned; (-)) [(-)-Eseroline fumarate salt], the normalised cell viability runs as follows: (treatment time: 3 days) 0.706 ± 0.026; (treatment time: 6 days) 0.716 ± 0.21.

As for `CC(NC(C)(C)C)C(=O)c1cccc(Cl)c1` (stereo not given) [Bupropion hydrochloride], the normalised cell viability was determined as 0.925 ± 0.056 (treatment time: 3 days) and 1.01 ± 0.12 (treatment time: 6 days).

Consider `CN1[C@@H]2C[C@@H](OC(=O)[C@H](CO)c3ccccc3)C[C@H]1[C@@H]1O[C@@H]12` [Scopolamine hydrochloride], for which the normalised cell viability came to 0.993 ± 0.013 (treatment time: 3 days) and 1.09 ± 0.059 (treatment time: 6 days).

Take `C#C[C@]1(O)CC[C@H]2[C@@H]3CCC4=CC(=O)CCC4=C3C=C[C@@]21CC` [Gestrinone]: the normalised cell viability was 0.959 ± 0.038 (treatment time: 3 days) and 0.9106 ± 0.0083 (treatment time: 6 days).

For `NCC(CC(=O)O)c1ccc(Cl)cc1` (racemic) [Baclofen (R,S)], the normalised cell viability reads like this: (treatment time: 3 days) 0.931 ± 0.081; (treatment time: 6 days) 1.038 ± 0.0059.

As for `N[C@@H]1C[C@H]1c1ccccc1` [Tranylcypromine hydrochloride], the normalised cell viability was found to be 0.988 ± 0.011 (treatment time: 3 days) and 0.992 ± 0.039 (treatment time: 6 days).

The molecule `CC(N)C(O)c1ccccc1` (stereo not given) [Phenylpropanolamine hydrochloride] yielded a normalised cell viability (treatment time: 3 days) of 1.05 ± 0.047 and a normalised cell viability (treatment time: 6 days) of 1.03 ± 0.038.

With `O=C(CCCN1CCC2(CC1)C(=O)NCN2c1ccccc1)c1ccc(F)cc1` [Spiperone], the normalised cell viability was determined as 1.04 ± 0.048 (treatment time: 3 days) and 1.04 ± 0.045 (treatment time: 6 days).

With `C=C1CC[C@@]2(O)[C@H]3Cc4ccc(O)c5c4[C@@]2(CCN3CC2CC2)[C@H]1O5` [Nalmefene hydrochloride], the normalised cell viability reads like this: (treatment time: 3 days) 1.06 ± 0.035; (treatment time: 6 days) 1.03 ± 0.076.

For `O=[N+]([O-])O[C@H]1CO[C@H]2[C@@H]1OC[C@H]2O[N+](=O)[O-]` [Isosorbide dinitrate], the normalised cell viability came out at 0.926 ± 0.071 (treatment time: 3 days) and 0.953 ± 0.042 (treatment time: 6 days).

As for `NCC1(CC(=O)O)CCCCC1` [Gabapentin], the normalised cell viability was 1.027 ± 0.009 (treatment time: 3 days) and 1.1 ± 0.027 (treatment time: 6 days).

As to `CC(O)(CS(=O)(=O)c1ccc(F)cc1)C(=O)Nc1ccc(C#N)c(C(F)(F)F)c1` (stereo not given) [Bicalutamide], the normalised cell viability amounted to 0.986 ± 0.13 (treatment time: 3 days) and 0.988 ± 0.012 (treatment time: 6 days).

Regarding `CCOC(=O)c1cncn1[C@H](C)c1ccccc1` [Etomidate], the normalised cell viability by setting is: (treatment time: 3 days) 0.935 ± 0.061; (treatment time: 6 days) 1.07 ± 0.1.

On to `Cc1cc(C(C#N)c2ccc(Cl)cc2)c(Cl)cc1NC(=O)c1cc(I)cc(I)c1O` (stereo not given) [Closantel], for which the normalised cell viability amounted to 0.943 ± 0.024 (treatment time: 3 days) and 0.943 ± 0.051 (treatment time: 6 days).

`C[C@@H]1C[C@@H]([C@H](O)CC2CC(=O)NC(=O)C2)C(=O)[C@@H](C)C1` [Cycloheximide] gave a normalised cell viability (treatment time: 3 days) of 0.132 ± 0.0063 and a normalised cell viability (treatment time: 6 days) of 0.142 ± 0.0068.

`CC[C@@H](CO)NC(=O)[C@@H]1C=C2c3cccc4[nH]cc(c34)C[C@H]2N(C)C1` [Methylergometrine maleate] had a normalised cell viability (treatment time: 3 days) of 1.03 ± 0.052 and a normalised cell viability (treatment time: 6 days) of 1.1 ± 0.055.

For the molecule `O=c1[nH]oc2c1CCNC2` [THIP Hydrochloride], the normalised cell viability amounted to 1.01 ± 0.067 (treatment time: 3 days) and 1.03 ± 0.01 (treatment time: 6 days).

In the case of `COc1cc2c(c(OC)c1OC)-c1ccc(OC)c(=O)cc1[C@@H](NC(C)=O)CC2` [Colchicine], the normalised cell viability came out at 0.167 ± 0.0023 (treatment time: 3 days) and 0.143 ± 0.011 (treatment time: 6 days).

Regarding `CC[N+]1(C)CCCC(OC(=O)C(O)(c2ccccc2)c2ccccc2)C1` (stereo not given) [Pipenzolate bromide], the normalised cell viability came to 1.08 ± 0.13 (treatment time: 3 days) and 1.02 ± 0.18 (treatment time: 6 days).

In the case of `c1ccc2c(c1)OCC(C1=NCCN1)O2` (stereo not given) [Idazoxan hydrochloride], the normalised cell viability runs as follows: (treatment time: 3 days) 0.979 ± 0.029; (treatment time: 6 days) 0.917 ± 0.031.

In the case of `CCCCCC[C@H]1C(=O)O[C@H](C)[C@H](NC(=O)c2cccc(NC=O)c2O)C(=O)O[C@@H](C)[C@@H]1OC(=O)CC(C)C` [Antimycin A], the normalised cell viability (treatment time: 3 days) came to 0.152 ± 0.0026 and the normalised cell viability (treatment time: 6 days) was 0.12 ± 0.011.
